# Data: the supplement of paper PMC8728848
# This is one part of the list.
# B1: Surfactant Protein D (Human); Neck + Carbohydrate Recognition Domain (NCRD) (Homo sapiens) (protein)
# chain: MLLFLLSALVLLTQPLGYLEAEMKTYSHRTMPSACTLVMCSSVESGLPGRDRDGREGPRGEKGDPGLPGAAGQAGMPGQAGPVGPKGDNGSVGEPGPKGDTGPSGPPGPPGVPGPAGREGALGKQGNIGPQGKPGPKGEAGPKGEVGAPGMQGSAGARGLAGPKGERGVPGERGVPGNTGAAGSAGAMGPQGSPGARGPPGLKGDKGIPGDKGAKGESGLPDVASLRQQVEALQGQVQHLQAAFSQYKKVELFPNGQSVGEKIFKTAQFVKPFTEAQLLCTQAGGQLASPRSAAENAALQQLVVAKNEAAFLSMTDSKTEGKFTYPTGESLVYSNWAPGEPNDDGGSEDCVEIFTNGKWNDRACGEKRLVVCEA
# What was measured:
# Assay in all cases: glycan array binding signal (z-score within array); higher = stronger binding
# Conditions in all cases: glycan notation: IUPAC condensed, linker removed; mutation: F355A
# [1] = molecular target: Fuc(a1-3)[GalNAc(b1-4)]GlcNAc
# In short: (§1)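 Glycan array binding is given as a within-array Z-score, which can be read as non-binding when negative. The arrays, 3228 of them, came from the Consortium for Functional Glycomics database and were retained only where the protein sequence was available. Z-scores were averaged across arrays of the same protein sequence at different concentrations or buffers and across linkers.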
# [2] = molecular target: Fuc(a1-4)GlcNAc
# In short: as §1
# [3] = molecular target: Fuc(b1-3)GlcNAc
# In short: as §1
# [4] = molecular target: Gal(a1-2)Gal
# In short: as §1
# [5] = molecular target: Gal(a1-3)Gal
# In short: as §1
# [6] = molecular target: Gal(a1-3)Gal(b1-3)GlcNAc
# In short: as §1
# [7] = molecular target: Gal(a1-3)Gal(b1-4)Glc
# In short: as §1
# [8] = molecular target: Gal(a1-3)Gal(b1-4)GlcNAc
# In short: as §1
# [9] = molecular target: Gal(a1-3)Gal(b1-4)[Fuc(a1-3)]GlcNAc
# In short: as §1
# [10] = molecular target: Gal(a1-3)GalNAc
# In short: as §1
# [11] = molecular target: Gal(a1-3)[Gal(a1-4)]Gal(b1-4)GlcNAc
# In short: as §1
# [12] = molecular target: Gal(a1-4)Gal(b1-4)Glc
# In short: as §1
# [13] = molecular target: Gal(a1-4)Gal(b1-4)GlcNAc
# In short: as §1
# [14] = molecular target: Gal(a1-4)GlcNAc
# In short: as §1
# [15] = molecular target: Gal(a1-6)Glc
# In short: as §1
# [16] = molecular target: Gal(b1-2)Gal
# In short: as §1
# [17] = molecular target: Gal(b1-3)Gal
# In short: as §1
# [18] = molecular target: Gal(b1-3)Gal(b1-4)GlcNAc
# In short: as §1
# [19] = molecular target: Gal(b1-3)GalNAc
# In short: as §1
# [20] = molecular target: Gal(b1-3)GalNAc(b1-3)Gal(a1-4)Gal(b1-4)Glc
# In short: as §1
# [21] = molecular target: Gal(b1-3)GalNAc(b1-4)Gal(b1-4)Glc
# In short: as §1
# [22] = molecular target: Gal(b1-3)GalNAc(b1-4)[Neu5Ac(a2-3)]Gal(b1-4)Glc
# In short: as §1
# [23] = molecular target: Gal(b1-3)GlcNAc
# In short: as §1
# [24] = molecular target: Gal(b1-3)GlcNAc(b1-2)Man(a1-3)[Gal(b1-3)GlcNAc(b1-2)Man(a1-6)]Man(b1-4)GlcNAc(b1-4)GlcNAc
# In short: as §1
# [25] = molecular target: Gal(b1-3)GlcNAc(b1-3)Gal(b1-3)GlcNAc
# In short: as §1
# [26] = molecular target: Gal(b1-3)GlcNAc(b1-3)Gal(b1-4)Glc
# In short: as §1
# [27] = molecular target: Gal(b1-3)GlcNAc(b1-3)Gal(b1-4)GlcNAc
# In short: as §1
# [28] = molecular target: Gal(b1-3)[Fuc(a1-4)]GlcNAc
# In short: as §1
# [29] = molecular target: Gal(b1-3)[Fuc(a1-4)]GlcNAc(b1-3)Gal(b1-3)[Fuc(a1-4)]GlcNAc
# In short: as §1
# [30] = molecular target: Gal(b1-3)[Fuc(a1-4)]GlcNAc(b1-3)Gal(b1-4)GlcNAc
# In short: as §1
# [31] = molecular target: Gal(b1-3)[Fuc(a1-4)]GlcNAc(b1-3)Gal(b1-4)[Fuc(a1-3)]GlcNAc
# In short: as §1
# [32] = molecular target: Gal(b1-3)[GlcNAc(b1-6)]GalNAc
# In short: as §1
# [33] = molecular target: Gal(b1-3)[Neu5Ac(a2-6)]GalNAc
# In short: as §1
# [34] = molecular target: Gal(b1-3)[Neu5Ac(a2-6)]GlcNAc(b1-6)Gal(b1-4)Glc
# In short: as §1
# [35] = molecular target: Gal(b1-3)[Neu5Ac(b2-6)]GalNAc
# In short: as §1
# [36] = molecular target: Gal(b1-4)GalNAc(a1-3)[Fuc(a1-2)]Gal(b1-4)GlcNAc
# In short: as §1
# [37] = molecular target: Gal(b1-4)GalNAc(b1-3)[Fuc(a1-2)]Gal(b1-4)GlcNAc
# In short: as §1
# [38] = molecular target: Gal(b1-4)Glc
# In short: as §1
# [39] = molecular target: Gal(b1-4)Glc6S
# In short: as §1
# [40] = molecular target: Gal(b1-4)GlcNAc
# In short: as §1
# [41] = molecular target: Gal(b1-4)GlcNAc(a1-6)Gal(b1-4)GlcNAc
# In short: as §1
# [42] = molecular target: Gal(b1-4)GlcNAc(b1-2)Man(a1-3)[Gal(b1-4)GlcNAc(b1-2)Man(a1-6)]Man(b1-4)GlcNAc(b1-4)GlcNAc
# In short: as §1
# [43] = molecular target: Gal(b1-4)GlcNAc(b1-3)Gal(b1-3)GlcNAc
# In short: as §1
# [44] = molecular target: Gal(b1-4)GlcNAc(b1-3)Gal(b1-4)Glc
# In short: as §1
# [45] = molecular target: Gal(b1-4)GlcNAc(b1-3)Gal(b1-4)GlcNAc
# In short: as §1
binder,measurement,setting,value
B1,glycan array binding signal (z-score),[1],-0.095
same,glycan array binding signal (z-score),[2],-0.143
same,glycan array binding signal (z-score),[3],-0.163
same,glycan array binding signal (z-score),[4],-0.16
same,glycan array binding signal (z-score),[5],-0.149
same,glycan array binding signal (z-score),[6],-0.144
same,glycan array binding signal (z-score),[7],-0.099
same,glycan array binding signal (z-score),[8],-0.139
same,glycan array binding signal (z-score),[9],-0.137
same,glycan array binding signal (z-score),[10],-0.129
same,glycan array binding signal (z-score),[11],-0.151
same,glycan array binding signal (z-score),[12],-0.114
same,glycan array binding signal (z-score),[13],-0.094
same,glycan array binding signal (z-score),[14],-0.123
same,glycan array binding signal (z-score),[15],-0.152
same,glycan array binding signal (z-score),[16],-0.153
same,glycan array binding signal (z-score),[17],-0.142
same,glycan array binding signal (z-score),[18],-0.102
same,glycan array binding signal (z-score),[19],-0.131
same,glycan array binding signal (z-score),[20],-0.144
same,glycan array binding signal (z-score),[21],-0.123
same,glycan array binding signal (z-score),[22],-0.145
same,glycan array binding signal (z-score),[23],-0.135
same,glycan array binding signal (z-score),[24],-0.13
same,glycan array binding signal (z-score),[25],-0.099
same,glycan array binding signal (z-score),[26],-0.12
same,glycan array binding signal (z-score),[27],-0.15
same,glycan array binding signal (z-score),[28],-0.138
same,glycan array binding signal (z-score),[29],-0.129
same,glycan array binding signal (z-score),[30],-0.127
same,glycan array binding signal (z-score),[31],-0.12
same,glycan array binding signal (z-score),[32],-0.103
same,glycan array binding signal (z-score),[33],-0.129
same,glycan array binding signal (z-score),[34],-0.112
same,glycan array binding signal (z-score),[35],-0.147
same,glycan array binding signal (z-score),[36],-0.129
same,glycan array binding signal (z-score),[37],-0.163
same,glycan array binding signal (z-score),[38],-0.139
same,glycan array binding signal (z-score),[39],-0.132
same,glycan array binding signal (z-score),[40],-0.124
same,glycan array binding signal (z-score),[41],-0.155
same,glycan array binding signal (z-score),[42],-0.104
same,glycan array binding signal (z-score),[43],-0.086
same,glycan array binding signal (z-score),[44],-0.137
same,glycan array binding signal (z-score),[45],-0.149
